The list shows a part of the results. These are further read-outs of the screen, such as a control signal, another cell line or another target. No call is given for them.
Legend:
Assay in all cases: Primary Screen for Target Class Profiling of Small Molecule Inhibitors of Methyltransferases
[1] = target: Glycine N-methyltransferase (Homo sapiens) (UniProt Q14749); conditions: purified enzyme, MTase-Glo SAH luminescence; measured here: GNMT inhibition; at 40 µM; stronger effect = lower value
In short: (§1)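 Each enzyme was reacted with SAM and its substrate, with compounds tested once at 40 uM; SAH formed was read by MTase-Glo luminescence.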

[2] = target: Guanidinoacetate N-methyltransferase (Homo sapiens) (UniProt Q14353); conditions: purified enzyme, MTase-Glo SAH luminescence; measured here: GAMT inhibition; at 40 µM; stronger effect = lower value
In short: as §1

[3] = target: Histamine N-methyltransferase (Homo sapiens) (UniProt P50135); conditions: purified enzyme, MTase-Glo SAH luminescence; measured here: HNMT inhibition; at 40 µM; stronger effect = lower value
In short: as §1

[4] = target: Nicotinamide N-methyltransferase (Homo sapiens) (UniProt P40261); conditions: purified enzyme, MTase-Glo SAH luminescence; measured here: NNMT inhibition; at 40 µM; stronger effect = lower value
In short: as §1

[5] = target: Phenylethanolamine N-methyltransferase (Homo sapiens) (UniProt P11086); conditions: purified enzyme, MTase-Glo SAH luminescence; measured here: PNMT inhibition; at 40 µM; stronger effect = lower value
In short: as §1
On the % scale 0 is the no-effect control and ±100 the full control effect.

SMILES	activity change, negative = inhibition [1] [%]	activity change, negative = inhibition [2] [%]	activity change, negative = inhibition [3] [%]	activity change, negative = inhibition [4] [%]	activity change, negative = inhibition [5] [%]
CN(C)CCN1C(=O)c2ccc(-c3ccco3)n2CC1(C)C(=O)NC1CCCCCCC1 (stereo not given)	1.43	1.79	4.45	3.24	0.454
CC(CN1C(=O)c2nc3ccccc3n2CC1(C)C(=O)NC1CCCC1)c1ccccc1 (stereo not given)	4.75	0	4.5	0.842	-1.71
Cc1ccc(NC(=O)c2cc3n(n2)CC(C)(C(=O)NC2CCCCCC2)N(C)C3=O)c(C)c1 (stereo not given)	-0.394	1.36	1.49	0.199	-1.2
COC(=O)C12CCC(C)C(C)C1C1=CCC3C4(C)CCC(OC(C)=O)C(C)(C)C4CCC3(C)C1(C)CC2 (stereo not given)	-0.014	2.78	2.61	-10.1	4.71
COc1ccc(-c2noc(CC3CCN(C(=O)c4cc(F)ccc4F)CC3)n2)cc1	-8.64	-3.78	0.697	-4.54	-4.64
Cc1ccc(-c2n[nH]n3c2nc(=O)c2ccc(C(=O)NCCc4ccc(Cl)cc4)cc23)cc1	-1.58	0	8.3	3.84	2.76
O=C(c1cc(F)ccc1F)N1CC(c2nc(CCc3ccccc3)no2)C1	0.46	1.69	2.16	-0.531	-3.23
COc1ncc(Nc2ncc([C@H](C)N3CCN(S(C)(=O)=O)CC3)cc2-c2nc(C)nc(N)n2)cc1F	-17.7	-13.2	-8.27	-22.2	-24.8
Clc1ccc(-c2nnn3c2nc(NCCc2c[nH]c4ccccc24)c2ccccc23)cc1	-1.98	5.39	0.844	-1.47	-4.75
O=c1[nH]c2ccc(S(=O)(=O)N(CCO)CCO)cc2[nH]1	3.94	0	7.49	7.51	-1.72
